Results as given in the supplement of paper PMC3334620.
Whole data set: some 33,000 sequences, median “E-score (-0.5 to 0.5)” near -0.017, cut for the highest 2% near 0.3. Some of the results follow.

What follows are sequences tested against T1, Sut1 (UniProt P53032) (assay: PBM E-score (8-mer binding enrichment) (E-score (-0.5 to 0.5)); higher = stronger / more preferred TF binding; most listed sequences are background and not binding sites). Conditions: protein concentration: 200 nM; construct: GST-full length.
T1 sequence: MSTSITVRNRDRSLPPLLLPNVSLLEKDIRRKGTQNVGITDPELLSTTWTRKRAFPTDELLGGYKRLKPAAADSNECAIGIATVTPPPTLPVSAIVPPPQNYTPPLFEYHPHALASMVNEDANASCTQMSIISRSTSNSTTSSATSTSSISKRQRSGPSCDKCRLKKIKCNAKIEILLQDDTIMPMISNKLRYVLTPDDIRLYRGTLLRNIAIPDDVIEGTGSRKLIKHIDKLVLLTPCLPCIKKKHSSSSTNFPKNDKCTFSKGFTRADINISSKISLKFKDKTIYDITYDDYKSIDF
Method in brief: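 Each ungapped eight-base word and its reverse complement, pooled, received an E-score from the Universal PBM Analysis Suite. Underlying scans, normalised with masliner, recorded fluorescent anti-GST bound to GST-tagged yeast transcription factors. These were applied at about 100-200 nM to universal all-10-mer Agilent arrays double-stranded by primer extension.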

Sequence | PBM E-score
CCTTTTGC | -0.0963
ACTTTAAG | 0.195
GCATCCGC | -0.0308
ACGCCTGC | -0.307
GCTCCTAA | -0.258
AGGATCCC | -0.0607
GTCGGAAC | 0.134
GCTCAGAA | 0.0338
GCAACTGA | -0.0671
GGTCAAAC | 0.00911
CCCTCGCA | -0.219
GGGATAAA | 0.141
ACACGCAG | -0.151
ATAGTGCC | -0.165
GGAGATAA | 0.197
CCCTTGTC | -0.172
ACCTTACA | 0.0525
CCGCACGC | -0.237
TAAGGCTA | -0.0499
AAGAGATT | 0.21
CCTTTAAA | -0.0727
ACGTAAAA | 0.109

Sequence | PBM E-score
GCGACGAA | 0.0149
AAGCAATG | 0.104
GGTTACTA | 0.146
AACACATC | 0.119
AGAGCGCT | -0.136
ATCCGACG | 0.0371
AACTGACG | -0.126
CCGTTCGC | -0.0248
AAGCAACC | -0.0389
ACACCCTA | -0.127
CACATAAC | -0.197
CCGCAGCC | -0.0543
AGTTGAAG | 0.0557
ATCGGAAT | 0.352
GCCTGTCA | -0.173
ACATAAGG | 0.131
CCTCTGGA | -0.148
GGACGGTA | -0.0407
AGGACGAT | -0.112
CGCGCATA | -0.269
CACGCGAC | -0.138
AGGAACCG | -0.038

Sequence | PBM E-score
CTTATTAA | 0.159
CAAAGTTC | 0.00795
AGTATTCG | 0.0764
CAGGGCAG | -0.183
CATTGTGC | 0.0252
CGGCGGCC | -0.061
TACTAACA | 0.131
GCCCATCC | -0.229
AATCGGCT | 0.11
GAACCGGC | -0.0738
CCTTATCA | 0.0523
CCTGTGAG | -0.117
ACACCGCG | -0.179
ACATTCTC | -0.0453
ACCCAGAC | -0.0554
CAGGAGAA | 0.0231
AATCCGTG | -0.153
CGTGCGGA | 0.0121
CTAGGTTC | 0.0866
CACAGATG | -0.127
GGTACACA | -0.139
AGTAGACT | 0.0983

Sequence | PBM E-score
GACGTTCC | -0.11
ATAGGTTA | 0.0903
GAATACTA | 0.127
GACGAGGC | -0.0913
TCTTCCAA | 0.177
TAGCCACA | -0.0649
AACACCTT | 0.0209
AAACATCG | -0.171
CAGCATAA | 0.19
CATAAAAA | 0.161
CCTAAATC | 0.108
GGATTCAA | -0.0371
CGGTCCTA | -0.124
TGGGGAAA | 0.0593
ACATTGCT | 0.0613
CTTGTTGA | 0.00705
AATTCTAA | 0.263
GCGTTCCA | -0.215
ATTTGCAG | 0.0722
CCGCCCAA | -0.272
